In the supplement of paper PMC9990464:
Where a name gives a salt, the structure may show the parent alone. The list shows a part of the results. Repeats are few or missing, and single values can be far off.

Columns and labels:
Assay in all cases: area under viability curve (10 nM-1 µM), viability relative to solvent or trametinib-only control (AUC (arbitrary, % viability x concentration range)); higher = less growth inhibition (more viable cells)
KCNR = conditions: 72 h compound exposure (96 h after seeding) h
Method: (§1)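 Four neuroblastoma cell lines (KCNR, SKNBE, SJNB8, SKNAS) were seeded in 384-well plates. At 24 h, 1 µM trametinib or DMSO was added, followed by library compounds at 10 nM, 100 nM and 1 µM. Viability was read by MTT at 96 h and normalised to solvent-treated cells (DMSO arm) or to trametinib-only cells (trametinib arm). The area under the 3-point viability curve was computed in GraphPad Prism; units are as given (approx. 100000 = no effect).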

SJNB8 = conditions: 72 h compound exposure (96 h after seeding) h; trametinib co-treatment 0 µM
Method: as §1

SKNAS = conditions: 72 h compound exposure (96 h after seeding) h
Method: as §1

SKNBE = conditions: 72 h compound exposure (96 h after seeding) h
Method: as §1
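Further: KCNR is a neuroblastoma cell line carrying an ALK mutation, in this DMSO arm without trametinib, viability was normalised to solvent-treated cells.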

SMILES	area under viability curve (KCNR; trametinib co-treatment 0 µM)	area under viability curve (KCNR; trametinib co-treatment 1 µM)	area under viability curve (SJNB8)	area under viability curve (SKNAS; trametinib co-treatment 0 µM)	area under viability curve (SKNAS; trametinib co-treatment 1 µM)	area under viability curve (SKNBE; trametinib co-treatment 0 µM)	area under viability curve (SKNBE; trametinib co-treatment 1 µM)
Nc1nc(Cl)nc2c1ncn2[C@@H]1O[C@H](CO)[C@@H](O)[C@@H]1F [Clofarabine]	90700	94100	59700	58900	68900	108000	113000
C[C@]1(c2nc3c(C(N)=O)cccc3[nH]2)CCCN1 [Veliparib]	106000	103000	97900	86800	102000	110000	106000
N#Cc1c(O)c2c(-c3ccc(-c4ccccc4O)cc3)csc2[nH]c1=O	94900	99900	104000	122000	96000	97700	99000
COc1cccc2c1C(=O)c1c(O)c3c(c(O)c1C2=O)C[C@@](O)(C(=O)CO)C[C@@H]3O[C@H]1C[C@H](N)[C@@H](O)[C@H](C)O1 [Epirubicin hydrochloride]	41900	18500	67200	80300	67600	68600	54400
COc1cc2ncnc(Nc3ccc(F)c(Cl)c3)c2cc1OCCCN1CCOCC1 [Gefitinib]	101000	100000	72300	59600	101000	90200	97600
CCCCC(=O)OCC(=O)[C@]1(O)Cc2c(O)c3c(c(O)c2[C@@H](O[C@H]2C[C@H](NC(=O)C(F)(F)F)[C@H](O)[C@H](C)O2)C1)C(=O)c1c(OC)cccc1C3=O [Valrubicin]	56100	38700	64100	59300	78500	83600	78800
CNC(=O)c1ccccc1Sc1ccc2c(/C=C/c3ccccn3)n[nH]c2c1 [Axitinib]	62400	63400	89000	99300	92300	83100	79600
Cc1[nH]c2ccccc2c1CCNCc1ccc(/C=C/C(=O)NO)cc1 [Panobinostat]	4440	1830	31500	13000	4440	6840	1790
O=c1[nH]c(=O)n([C@H]2C[C@H](O)[C@@H](CO)O2)cc1F [2’-Deoxy-5-fluorouridine]	53900	38700	54300	62600	80100	37900	17300
CC[C@]1(O)C[C@@H]2CN(CCc3c([nH]c4ccccc34)[C@@](C(=O)OC)(c3cc4c(cc3OC)N(C)[C@H]3[C@@](O)(C(=O)OC)[C@H](OC(C)=O)[C@]5(CC)C=CCN6CC[C@]43[C@@H]65)C2)C1 [Vinblastine sulfate]	11400	12300	19200	17400	19800	14800	2630
N.N.O=C([O-])C[O-].[Pt+2] [Nedaplatin]	101000	102000	94800	122000	99500	95500	102000
CN(C)C/C=C/C(=O)Nc1cc2c(Nc3ccc(F)c(Cl)c3)ncnc2cc1O[C@H]1CCOC1 [Afatinib]	97800	97700	109000	133000	99000	108000	99100
C[C@@H](O[C@H]1OCCN(Cc2n[nH]c(=O)[nH]2)[C@H]1c1ccc(F)cc1)c1cc(C(F)(F)F)cc(C(F)(F)F)c1 [Aprepitant]	101000	106000	82500	90600	97300	107000	117000
CC(=O)O[C@@]12CO[C@@H]1C[C@H](O)[C@@]1(C)C(=O)[C@H](O)C3=C(C)[C@@H](OC(=O)[C@H](O)[C@@H](NC(=O)OC(C)(C)C)c4ccccc4)C[C@@](O)([C@@H](OC(=O)c4ccccc4)[C@H]21)C3(C)C [Docetaxel]	14800	17500	21400	24300	18400	24100	9440
CC(C)C1O[C@H](CN)[C@@H](CN)O1.O=C([O-])CC(=O)[O-].[Pt+2] [Eptaplatin]	101000	107000	83700	112000	106000	104000	93000
CCNC(=O)[C@@H]1CCCN1C(=O)[C@H](CCCNC(=N)N)NC(=O)[C@H](CC(C)C)NC(=O)[C@@H](COC(C)(C)C)NC(=O)[C@H](Cc1ccc(O)cc1)NC(=O)[C@H](CO)NC(=O)[C@H](Cc1c[nH]c2ccccc12)NC(=O)[C@H](Cc1cnc[nH]1)NC(=O)[C@@H]1CCC(=O)N1 [Buserelin acetate]	105000	99100	92400	112000	91300	109000	104000
Nc1c(O)cc(O)cc1C=Cc1ccc(O)cc1 [Aminoresveratrol sulfate]	94500	90100	88000	103000	102000	86300	91900
Nc1ccn([C@@H]2O[C@H](CO)[C@@H](O)C2(F)F)c(=O)n1 [Gemcitabine hydrochloride]	18500	11600	43900	44800	43400	26000	11000
COc1cc(C(=O)O)ccc1NC(=O)[C@@H]1N[C@@H](CC(C)(C)C)[C@](C#N)(c2ccc(Cl)cc2F)[C@H]1c1cccc(Cl)c1F [Idasanutlin]	46500	21800	79500	101000	100000	96900	85000

SMILES	area under viability curve (KCNR; trametinib co-treatment 0 µM)	area under viability curve (KCNR; trametinib co-treatment 1 µM)	area under viability curve (SJNB8)	area under viability curve (SKNAS; trametinib co-treatment 0 µM)	area under viability curve (SKNAS; trametinib co-treatment 1 µM)	area under viability curve (SKNBE; trametinib co-treatment 0 µM)	area under viability curve (SKNBE; trametinib co-treatment 1 µM)
O=NN(CCCl)C(=O)NC1CCCCC1 [Lomustine]	102000	105000	104000	97600	103000	115000	110000
Cc1ccc(NC(=O)c2ccc(CN3CCN(C)CC3)cc2)cc1Nc1nccc(-c2cccnc2)n1 [Imatinib mesylate]	105000	101000	93900	118000	93200	102000	101000
O=C(CCCCCCC(=O)NO)NO [Suberoyl bis-hydroxamic acid]	99500	94700	91200	107000	95700	113000	101000
O=C(CCCCCN1C(=O)c2cccc3cccc(c23)C1=O)NO [Scriptaid]	57700	43600	78600	53300	63400	88700	63000
CC[C@@]1(O)C(=O)OCc2c1cc1n(c2=O)Cc2cc3cc(O)ccc3nc2-1 [10-Hydroxycamptothecin]	3740	3700	59800	29300	31300	21900	7880
Nc1nc(OCc2ccccc2)c2nc[nH]c2n1 [O6-Benzylguanine]	105000	108000	107000	122000	99200	114000	108000
CC(C)C[C@H](NC(=O)[C@@H](COC(C)(C)C)NC(=O)[C@H](Cc1ccc(O)cc1)NC(=O)[C@H](CO)NC(=O)[C@H](Cc1c[nH]c2ccccc12)NC(=O)[C@H](Cc1cnc[nH]1)NC(=O)[C@@H]1CCC(=O)N1)C(=O)N[C@@H](CCCNC(=N)N)C(=O)N1CCC[C@H]1C(=O)NNC(N)=O [Goserelin acetate]	96700	102000	101000	97200	96500	99200	92900
Cc1ccc2c(=O)c3cccc(CC(=O)O)c3oc2c1C [Vadimezan]	99700	96300	108000	116000	104000	96100	94600
CCNC(=O)[C@@H]1CCCN1C(=O)[C@H](CCCN=C(N)N)NC(=O)[C@H](CC(C)C)NC(=O)[C@@H](C)NC(=O)[C@H](Cc1ccc(O)cc1)NC(=O)[C@H](CO)NC(=O)[C@H](Cc1c[nH]c2ccccc12)NC(=O)[C@H](Cc1cnc[nH]1)NC(=O)[C@@H]1CCC(=O)N1 [Alarelin acetate]	100000	99800	94900	103000	101000	106000	97800
Cc1nc(Nc2ncc(C(=O)Nc3c(C)cccc3Cl)s2)cc(N2CCN(CCO)CC2)n1 [Dasatinib]			60600	45900	55300	107000	107000
NC(=O)c1cccnc1 [Nicotinamide]	104000	99600	103000	118000	102000	106000	105000
O=C(O)C(=O)O.[NH-][C@@H]1CCCC[C@H]1[NH-].[Pt+2] [Oxaliplatin]			85500	111000	99900	101000	109000
COc1cc2c(N3CCN(C(=O)Nc4ccc(OC(C)C)cc4)CC3)ncnc2cc1OCCCN1CCCCC1 [Tandutinib]	95500	102000	96600	123000	99900	101000	99300
Nc1nccc(Oc2ccc(NC(=O)c3c[nH]cc(-c4ccc(F)cc4)c3=O)cc2F)c1Cl			95900	115000	101000	92500	99100
CS(=O)(=O)N1CCN(Cc2cc3nc(-c4cccc5[nH]ncc45)nc(N4CCOCC4)c3s2)CC1 [Pictilisib]			86300	102000	75900	80700	59200
CO[C@@]12[C@H](COC(N)=O)C3=C(C(=O)C(C)=C(N)C3=O)N1C[C@@H]1N[C@@H]12 [Mitomycin C]			64500	89400	76500	61300	42100
O=C(/C=C/C#Cc1cccc(NS(=O)(=O)c2ccccc2)c1)NO [Oxamflatin]			68000	70900	44300	65500	38800
O=C(NC[C@H](O)CO)c1ccncc1Nc1ccc(I)cc1F [Pimasertib]			37200	52500	103000	85000	108000
COC(=O)[C@]12CCC(C)(C)C[C@H]1[C@H]1C(=O)C=C3[C@@]4(C)C=C(C#N)C(=O)C(C)(C)[C@@H]4CC[C@@]3(C)[C@]1(C)CC2 [Bardoxolone methyl]			54500	40700	75500	35200	33900
